In test [1] the test system is T. b. brucei Lister S427 (a drug-sensitive wild type). The experiment in a line: Resazurin-based (Alamar blue) drug sensitivity assay. The conditions noted are these: for IC50: Trypanosoma brucei, read-out: IC50 T.b. brucei; for T.b. brucei Selectivity Indices (SI, IC50 (μM)/IC50 (μM)) Group / T.b. brucei Selectivity Index (SI, IC50 (μM)/IC50 (μM)), numeric value: cytotoxicity against HEK293 cells vs T.b. brucei.

Test [2] concerns T. congolense IL3000 (a drug sensitive wild type). Described as above. The conditions noted are these: Trypanosoma congolense, read-out: IC50 T. congo. The procedure:
A detailed description of the procedure for evaluating activity against trypanosomes, using an Alamar Blue (resazurin) assay, is described below.
The BSF T. congolense IL3000 and a clonal line, 6C3, adapted from IL3000 in vitro with diminazene aceturate (Merck), leading to a ˜10-fold resistance, were cultured in TCBSF3 medium without red blood cells (see Zheoat, A. M. et al., 2021, Pathogens (Basel, Switzerland), 10(2), 175). Dulbecco's minimum essential medium (MEM) was supplemented with 25 mM (4-(2-hydroxyethyl)-1-piperazineethanesulfonic acid) (HEPES), 26 mM NaHCO3, 5.6 mM Dd-glucose, 1 mM sodium pyruvate, 40 μM adenosine, 100 μM hypoxanthine, 16.5 μM thymidine, and 25 μM bathocuproinedisulfonic acid disodium salt. To this basal medium were added β-mercaptoethanol (0.0014% v/v), 1.6 mM glutamine, 100 units/mL penicillin/0.1 mg/mL streptomycin (Gibco), 20% goat serum (Gibco), and 5% Serum Plus (SAFC Bi-osciences) (see Coustou, V. et al., 2010, PLoS Negl. Trop. Dis., 4, e618 and Giordani, F. et al., J. Med. Chem., 2019, 62, 3021-3035). The BSF T. congolense IL3000 WT and its derived line, 6C3, were cultured at 34° C. in a humidified, 5% CO2 environment.
A resazurin-based (Alamar blue) drug sensitivity assay was used to assess and compare the activity of standard trypanocides in the different cell lines investigated (see Gould, M. K. et al., Anal. Biochem., 2008, 382, 87-93). Briefly, 23 doubling dilutions of the test compound of the invention, starting at 100 μM, and a compound-free control were prepared in 100 μL medium in a 96-well white plate (Greiner Bio-one, Frickenhausen, Germany). The cells were adjusted to 2×10^4 cells/mL for T. b. brucei and T. equiperdum; 4×10^4 cells/mL for T. evansi; and 5×10^5 cells/mL for T. congolense in the appropriate medium. 100 μL of the adjusted cells was then added to the wells containing drug dilutions and incubated for 48 h under respective culture condition. Thereafter, 20 μL of 125 mg/mL resazurin sodium dye was added, and the plate was incubated for a further 24 h. The resorufin fluorescence in each well of the plate was determined and used to calculate the Half maximal effective concentration (EC50) of the drug, as described in Carruthers, L. V. et al., Mol. Microbiol., 2021, 116, 564-588.

With `CCCCCCCCCNC(=N)CCNC(=O)c1cc(NC(=O)c2cc(NC(=O)c3ccc(/C=C/c4cnc5ccccc5c4)cc3)cn2C)cn1C` [Ia36, (E)-N-(3-imino-3-(nonylamino)propyl)-1-methyl-4-(1-methyl-4-(4-(2-(quinolin-3-yl)vinyl)benzamido)-1H-pyrrole-2-carboxamido)-1H-pyrrole-2-carboxamide], the IC50 in test [1] and in test [2] was 250 to 1000 nM in each case.
For `CCNC(=N)CCNC(=O)c1cc(NC(=O)c2cc(NC(=O)c3ccc(/C=C/c4cccc(OC)c4)cc3)cn2C)cn1C` [Ia22, (E)-N-(3-(ethylamino)-3-iminopropyl)-4-(4-(4-(3-methoxystyryl)benzamido)-1-methyl-1H-pyrrole-2-carboxamido)-1-methyl-1H-pyrrole-2-carboxamide], the IC50 was 250 to 1000 nM in test [1] and under 50 nM in test [2].
For the compound `Cn1cc(NC(=O)c2ccc(/C=C/c3cnc4ccccc4c3)cc2)cc1C(=O)Nc1cc(C(=O)N2CCSCC2)n(C)c1` [IVb2, (E)-1-methyl-N-(1-methyl-5-(thiomorpholine-4-carbonyl)-1H-pyrrol-3-yl)-4-(4-(2-(quinolin-3-yl)vinyl)benzamido)-1H-pyrrole-2-carboxamide], the “T.b. brucei Selectivity Indices (SI, IC50 (μM)/IC50 (μM)) Group” value (from here on “T.b. brucei Selectivity Indices”) in test [1] (Amides) is on record as “C (Group C: 1.5 < SI <= 3)”. Also, the figures for the IC50 in test [1] and in test [2] were 250 to 1000 nM and over 1000 nM, respectively.
With `[H]/N=C(\CCNC(=O)c1cc(NC(=O)c2cc(NC(=O)c3ccc(C=Cc4ccc(C#N)cc4)cc3)cn2C)cn1C)NCC` [Ia16, (E)-4-(4-(4-cyanostyryl)benzamido)-N-(5-((3-(ethylamino)-3-iminopropyl)carbamoyl)-1-methyl-1H-pyrrol-3-yl)-1-methyl-1H-pyrrole-2-carboxamide], in test [1] (Alkyl Amidines and NH Pyrroles), the “T.b. brucei Selectivity Indices” value is given as “C (Group C: 150 < SI <= 300)”. Further, in test [1], the IC50 lay within 250 to 1000 nM and the “T.b. brucei Selectivity Index (SI, IC50 (μM)/IC50 (μM)), numeric value” (“T.b. brucei Selectivity Index” below) was 164. Also, the IC50 in test [2] lay within 50 to 250 nM.
Regarding `CCCC[N+](C)(C)CCNC(=O)c1cc(NC(=O)c2cc(NC(=O)c3ccc(/C=C/c4cnc5ccccc5c4)cc3)cn2C)cn1C` [Ic3, (E)-N,N-dimethyl-N-(2-(1-methyl-4-(1-methyl-4-(4-(2-(quinolin-3-yl)vinyl)benzamido)-1H-pyrrole-2-carboxamido)-1H-pyrrole-2-carboxamido)ethyl)butan-1-aminium], in test [1] (Quaternary ammoniums), the “T.b. brucei Selectivity Indices” value was “C (Group C: 80 < SI <= 120)”. Besides, the figures for the IC50 in test [1] and in test [2] were 50 to 250 nM and under 50 nM, respectively.
As to `CCCCCCC/N=C(/CCNC(=O)c1cc(NC(=O)c2cc(NC(=O)c3ccc(/C=C/c4cnc5ccccc5c4)cc3)cn2C)cn1C)NCCCCCCC` [Ia37, N—((Z)-3-(heptylamino)-3-(heptylimino)propyl)-1-methyl-4-(1-methyl-4-(4-((E)-2-(quinolin-3-yl)vinyl)benzamido)-1H-pyrrole-2-carboxamido)-1H-pyrrole-2-carboxamide], the IC50 in test [1] and in test [2] was over 1000 nM in each case.
Turning to `CC(C)=CCC/C(C)=C/CNC(=O)c1cc(NC(=O)c2cc(NC(=O)c3ccc(/C=C/c4cnc5ccccc5c4)cc3)cn2C)cn1C` [IVa10, N—((E)-3,7-dimethylocta-2,6-dien-1-yl)-1-methyl-4-(1-methyl-4-(4-((E)-2-(quinolin-3-yl)vinyl)benzamido)-1H-pyrrole-2-carboxamido)-1H-pyrrole-2-carboxamide], in test [1] (Amides), the “T.b. brucei Selectivity Indices” value is “B (Group B: 0.7 < SI <= 1.5)”. Moreover, the values for the IC50 in test [1] and in test [2] were 250 to 1000 nM and over 1000 nM, respectively.
As for `CCCCCCCCCCCCCCC[N+](C)(C)CCNC(=O)c1cc(NC(=O)c2cc(NC(=O)c3ccc(/C=C/c4cnc5ccccc5c4)cc3)cn2C)cn1C` [Ic14, (E)-N,N-dimethyl-N-(2-(1-methyl-4-(1-methyl-4-(4-(2-(quinolin-3-yl)vinyl)benzamido)-1H-pyrrole-2-carboxamido)-1H-pyrrole-2-carboxamido)ethyl)pentadecan-1-aminium], the IC50 in test [1] and in test [2] was over 1000 nM throughout.
Take `C/N=C(/CCNC(=O)c1cc(NC(=O)c2cc(NC(=O)c3ccc(/C=C/c4ccc(C(F)(F)F)cc4)cc3)cn2C)cn1C)NC` [Ia5, 1-methyl-4-(1-methyl-4-(4-((E)-4-(trifluoromethyl)styryl)benzamido)-1H-pyrrole-2-carboxamido)-N—((Z)-3-(methylamino)-3-(methylimino)propyl)-1H-pyrrole-2-carboxamide]: the results for the IC50 in test [1] and in test [2] were 250 to 1000 nM and under 50 nM, respectively.
`CCCCC[N+](C)(C)CCNC(=O)c1cc(NC(=O)c2cc(NC(=O)c3ccc(/C=C/c4cnc5ccccc5c4)cc3)cn2C)cn1C` [Ic4, (E)-N,N-dimethyl-N-(2-(1-methyl-4-(1-methyl-4-(4-(2-(quinolin-3-yl)vinyl)benzamido)-1H-pyrrole-2-carboxamido)-1H-pyrrole-2-carboxamido)ethyl)pentan-1-aminium]: the “T.b. brucei Selectivity Indices” value in test [1] (Quaternary ammoniums) is reported as “C (Group C: 80 < SI <= 120)”. Moreover, the figures for the IC50 in test [1] and in test [2] were 50 to 250 nM and under 50 nM, respectively. In test [1], the “T.b. brucei Selectivity Index” value is listed as 107.
Take `[H]/N=C(\CCNC(=O)c1cc(NC(=O)c2cc(NC(=O)c3ccc(C=Cc4ccc5nonc5c4)cc3)cn2C)cn1C)NC` [Ia3, (E)-4-(4-(2-(benzo[c][1,2,5]oxadiazol-5-yl)vinyl)benzamido)-N-(5-((3-imino-3-(methylamino)propyl)carbamoyl)-1-methyl-1H-pyrrol-3-yl)-1-methyl-1H-pyrrole-2-carboxamide]: the results for the IC50 in test [1] and in test [2] were 250 to 1000 nM and under 50 nM, respectively.
For the compound `CNC(=N)CCNC(=O)c1cc(NC(=O)c2cc(NC(=O)c3ccc(/C=C/c4ccc(C(F)(F)F)cc4)cc3)cn2C)cn1C` [Ia2, (E)-N-(3-imino-3-(methylamino)propyl)-1-methyl-4-(1-methyl-4-(4-(4-(trifluoromethyl)styryl)benzamido)-1H-pyrrole-2-carboxamido)-1H-pyrrole-2-carboxamide], the IC50 in test [1] is over 1000 nM; in test [2], 50 to 250 nM.
In the case of `Cn1cc(NC(=O)c2cc(NC(=O)c3ccc(/C=C/c4cnc5ccccc5c4)cc3)cn2C)cc1C(=O)NCCOCCOCCO` [IVa7, (E)-N-(2-(2-(2-hydroxyethoxy)ethoxy)ethyl)-1-methyl-4-(1-methyl-4-(4-(2-(quinolin-3-yl)vinyl)benzamido)-1H-pyrrole-2-carboxamido)-1H-pyrrole-2-carboxamide], the “T.b. brucei Selectivity Indices” value in test [1] (Amides) is listed as “C (Group C: 1.5 < SI <= 3)”. For the same compound, the IC50 in test [1] and in test [2] was over 1000 nM in each case.
For the compound `CCCCCCCCCCCC[N+](C)(C)CCNC(=O)c1cc(NC(=O)c2cc(NC(=O)c3ccc(/C=C/c4cnc5ccccc5c4)cc3)cn2C)cn1C` [Ic11, (E)-N,N-dimethyl-N-(2-(1-methyl-4-(1-methyl-4-(4-(2-(quinolin-3-yl)vinyl)benzamido)-1H-pyrrole-2-carboxamido)-1H-pyrrole-2-carboxamido)ethyl)dodecan-1-aminium], the IC50 in test [1] lay in the range of 250 to 1000 nM; in test [2], 50 to 250 nM.
On to `Cn1cc(NC(=O)c2cc(NC(=O)c3ccc(/C=C/c4cnc5ccccc5c4)cc3)cn2C)cc1C(=O)NCCC(=N)NCCC1CCOCC1` [Ia44, (E)-N-(3-imino-3-((2-(tetrahydro-2H-pyran-4-yl)ethyl)amino)propyl)-1-methyl-4-(1-methyl-4-(4-(2-(quinolin-3-yl)vinyl)benzamido)-1H-pyrrole-2-carboxamido)-1H-pyrrole-2-carboxamide], for which the IC50 in test [1] and in test [2] was 250 to 1000 nM each time.
In the case of `[H]/N=C(\CCNC(=O)c1cc(NC(=O)c2cc(NC(=O)c3ccc(C=Cc4ccc5nonc5c4)cc3)cn2C)cn1C)NCCC1CCOCC1` [Ia45, (E)-4-(4-(2-(benzo[c][1,2,5]oxadiazol-5-yl)vinyl)benzamido)-N-(5-((3-imino-3-((2-(tetrahydro-2H-pyran-4-yl)ethyl)amino)propyl)carbamoyl)-1-methyl-1H-pyrrol-3-yl)-1-methyl-1H-pyrrole-2-carboxamide], in test [1] (Alkyl Amidines and NH Pyrroles), the “T.b. brucei Selectivity Indices” value is on record as “D (Group D: SI > 300)”. Also, in test [1], the IC50 lay within 50 to 250 nM and the “T.b. brucei Selectivity Index” value is on record as 360. For the same compound, in test [2], the IC50 fell in the range of 50 to 250 nM.

A word on the IC50: it is the concentration needed to halve the response being measured.

The values are drawn from patent publication US20250313546A1, “NUCLEIC ACID BINDERS” (UNIVERSITY OF STRATHCLYDE, priority 2022, published 2025).
